Experimental data from the supplement of paper PMC3334620.
The full ranking holds about 33,000 sequences; the median of “E-score (-0.5 to 0.5)” is about -0.036, and the highest 2% start at about 0.37. The list shows a part of the results.

Molecular target: T1, Yer064c (UniProt P40041)
T1 sequence: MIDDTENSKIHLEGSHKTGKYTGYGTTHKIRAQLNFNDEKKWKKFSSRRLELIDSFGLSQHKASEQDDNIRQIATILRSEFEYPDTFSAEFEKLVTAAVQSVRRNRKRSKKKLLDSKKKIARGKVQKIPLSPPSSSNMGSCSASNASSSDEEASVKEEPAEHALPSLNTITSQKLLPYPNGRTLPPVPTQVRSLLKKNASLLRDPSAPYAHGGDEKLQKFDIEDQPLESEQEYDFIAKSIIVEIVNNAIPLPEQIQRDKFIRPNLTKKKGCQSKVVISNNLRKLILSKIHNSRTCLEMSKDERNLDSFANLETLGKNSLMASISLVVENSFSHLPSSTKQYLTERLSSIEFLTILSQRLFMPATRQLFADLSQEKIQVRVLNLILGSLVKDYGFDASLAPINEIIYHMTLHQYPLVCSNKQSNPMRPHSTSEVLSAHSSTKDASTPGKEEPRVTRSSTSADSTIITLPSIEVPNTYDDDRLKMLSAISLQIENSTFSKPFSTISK
Test: PBM E-score (8-mer binding enrichment) (E-score (-0.5 to 0.5)); higher = stronger / more preferred TF binding; most listed sequences are background and not binding sites
Conditions: protein concentration: 200 nM; construct: GST-full length
Protocol: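 Universal 'all 10-mer' protein binding microarrays (Agilent AMADID 015681) probed with GST-tagged S. cerevisiae TFs (full-length or DBD) made by in vitro transcription/translation (PURExpress), about 100-200 nM. Bound TF was detected with fluorescent anti-GST. Each ungapped 8-mer (which stands for itself and its reverse complement) is scored by the PBM enrichment score (E-score), a modified Wilcoxon-Mann-Whitney statistic from -0.5 to +0.5, computed with the Universal PBM Analysis Suite. Scale: above 0.35 generally sequence-specific binding.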

Point of comparison: GCCTTCAC, “PBM E-score” value -0.213. Against it:
- GAGCTCTA — higher, -0.181
- ACATCTAG — higher, -0.0496
- CTTCATAC — higher, -0.00264
- ATCAACAC — higher, 0.261
- CTGAAAGA — higher, 0.122
- CCGTGCGA — higher, 0.132
- TCTAGACA — higher, 0.128
- AAGCAGAC — higher, -0.153
- AGTGGAAA — higher, -0.0554
- CGAGACCG — lower, -0.236
- GGCAATAC — higher, -0.108
- GCCTTCGA — higher, -0.202
- ACCATGGC — higher, 0.0965
- AAAAGATA — higher, -0.0154
- CCATCCCG — higher, -0.127
- CTTATCCA — higher, 0.116
- GATTTGCA — higher, 0.0161
- TATCTCAA — higher, 0.207
- AACCGATA — higher, 0.0039
- AACTCCTG — higher, 0.0255
- AATGGCGA — higher, 0.113
- ACACCGTG — higher, -0.109
- CCGGTTGC — higher, -0.177
- GTGCTTTA — higher, -0.0214
- GAGAGCGA — higher, -0.0993
- CCTTTGCC — higher, -0.17
- AATTCGTA — higher, -0.141
- CACACATG — higher, 0.0125
- GGTGTGAA — higher, 0.0513
- CCTAATAG — higher, -0.154
- ACATTAGA — higher, 0.0255
- CGTTGCAG — higher, 0.046
- GGCTTGAA — higher, 0.00353
- CCAACCCG — higher, -0.194
- AGACCCTG — higher, -0.0302
- AACATGCA — higher, 0.00292
- GGTTTTAA — higher, -0.0576
- CCTAGCTC — lower, -0.372
- TAATCGAA — higher, 0.0261
- CAAGATGG — higher, -0.0772
- CCACTGCA — higher, -0.0355
- AAATGGGA — higher, -0.15
- CAAATTGG — higher, -0.0805
- GCGAAAAA — higher, 0.0511
- AGACGGCC — lower, -0.318
- CATCTAAG — higher, -0.142
- AGACCTAC — higher, 0.00472
- TCGATAAA — higher, 0.0383
- CACTTTGG — higher, -0.0471
- AGGGGTTA — higher, 0.00933
- CACGCTGA — higher, -0.00287
- CAGCGCAG — higher, 0.0815
- AAGACTCG — higher, 0.373
- CAAGACCC — lower, -0.227
- CCGCGGCG — higher, -0.196
- CCAGTGAA — higher, -0.0175
- GACGCCTA — higher, -0.173
- CTGATCGA — higher, 0.0155
- AATACAGC — higher, -0.0906
- CGATTGTC — higher, -0.065
- CAAAAGCC — lower, -0.227
- TCCCCAAA — higher, 0.0692
- GAAGGTAC — higher, -0.0812
- AGGTCGTG — higher, 0.145
- ACTTCATC — higher, -0.022
- AGGCCACA — lower, -0.378
- GTGGCCCA — lower, -0.262
- AGGTAATA — higher, -0.0278
- ATCCCTCG — higher, -0.152
- GTTTGGTA — higher, 0.133
- CCTCACAG — higher, -0.133
- GAGGCCAC — lower, -0.319
- CGTGATAA — higher, 0.0558
- AGTTCACC — higher, 0.0223
- ATTCTTCG — higher, -0.00284
- AAAGCCTT — higher, -0.174
- CTGCATAA — higher, 0.0634
- CAATGATA — higher, 0.0669
- ATTCGATG — higher, 0.0769
- ATCGCTCA — higher, 0.0405
- ACAGCCCA — higher, -0.175
- ATTTGAGC — higher, 0.0922
- CATAGGTA — higher, 0.0277
- ATGACATA — higher, 0.132
- CGATGCAA — lower, -0.331
- CCGACCGG — lower, -0.228
- AGTGTGCA — higher, 0.0252
- ACGTTGAT — higher, 0.217
- CTGGCGGC — higher, -0.153
- CAAGACGA — higher, 0.0536
- GTAGCGTA — higher, -0.164
- TCAATGGA — higher, 0.0976
- GAGAACCC — higher, -0.106
- ATACTTTG — higher, 0.0464
- GGTCGTGA — higher, -0.0505
- AATTATCT — higher, -0.106
- AGATGCAG — higher, 0.0295
- CTCTTATA — higher, 0.116
- CAGTGCAC — higher, -0.186
- GACCCCAC — higher, -0.0798
- AAAAACAC — higher, -0.168
- ACCTGACC — higher, -0.13
- AAATTGTG — higher, 0.0122
- AAGGCTGA — higher, 0.00065
- AAGAACAC — higher, -0.0835
- AGCACAAC — higher, -0.0948
- CTGGTTTC — higher, -0.0697
- ACCGAACT — higher, -0.0318
- AATCAAAA — higher, 0.219
- CCGCGCAC — lower, -0.234
- GAGGCAGA — higher, -0.133
- ACGTAGTC — higher, 0.39
- CCCGCCGG — lower, -0.293
- CAATTAAC — higher, 0.082
- ACGCAGCC — higher, -0.137
- AAAAGCCG — the same, -0.213
- AAATTAGT — higher, 0.27
- CCAGTGCC — higher, -0.189
- ATTTTGCA — higher, 0.0214
- AGCCGTAT — higher, -0.082
- GACCGGCC — higher, -0.196
- CCTATAAA — higher, -0.101
- CGGGAAAA — higher, -0.121
- GCCGGCGA — higher, -0.0124
- GACAACAA — higher, 0.156
- AGCGGAAG — higher, -0.191
- GAGTGCAC — higher, -0.108
- AATTTTCC — higher, -0.18
- AGTGAAGA — higher, -0.0368
- AGAGATAT — higher, -0.132
- GGGAGCCC — lower, -0.261
- AGCCATGA — higher, 0.282
- AACATTTA — higher, -0.105
- CAGATTAG — higher, 0.136
- CTGTTGTA — higher, 0.115
- AAAGAACA — higher, -0.0705
- TAACTTCA — higher, 0.014
- GATTGGGA — higher, 0.0503
- CTCATACC — higher, 0.155
- GATGTCGC — lower, -0.27
- CTGGTGGC — higher, -0.138
- CGCTAGTA — higher, 0.0198
- ACTTCTTG — higher, -0.107
- AATCTCAG — higher, 0.00667
- GCTTCACA — lower, -0.298
- GCTCAAAC — higher, 0.0109
- GCGAGCAC — higher, -0.0901
- ATTATGAA — higher, 0.253
- AGTCGCAT — higher, 0.365
- CGTTTTCA — higher, -0.152
- GTGTTCGA — higher, 0.0564
- AAACGTCC — higher, -0.132
- ATAAAATA — higher, 0.0161
- CCGCCCCG — higher, 0.0462
- ACGATGCG — higher, -0.083
- AAGTAGAT — higher, 0.00219
- CGCTCACG — higher, -0.0623
- ACGTGAAT — higher, -0.00715
- ACTGCCTG — higher, 0.122
- AACGTACG — higher, -0.143
- GCGGCTAC — higher, -0.0969
- CGTCTACC — higher, -0.167
- GTTCCGCA — higher, 0.0395
- AGGTGGAC — higher, -0.133
- GAACGGTA — higher, -0.0787
- AGGGGTTC — lower, -0.306
- AATTGGCA — higher, -0.155
- ATCTTGAC — higher, 0.111
- CCAGTACA — higher, 0.0592
- CGTGAATC — higher, 0.351
- GGTCCAGA — higher, -0.177
